How the values were obtained:
[1] = co-administration of atorvastatin or rosuvastatin and certain CHCs containing EE; cited from earlier work
[2] = Regression model of quarterly use; set-up: species or system human
Source text: The regression model described in Example 12 was used to predict AUC and Cavg values for SA and EE after four quarterly periods of extended use of the vaginal system disclosed herein. […] Cavg is the SA concentration in serum during the product-use period while the AUCF-L is the area under the curve for the period beginning on the first day (“F”) and ending on the last day (“L”) of the product-use cycle.
Cavg is the SA concentration in serum during the product-use period while the AUCF-L is the area under the curve for the period beginning on the first day and ending on the last day of the product-use cycle.
Cavg is the average concentration in serum during the product-use period while the AUCF-L is the area under the curve for the period beginning on the first day and ending on the last day of the product-use cycle.
Cavg is the average EE concentration in serum during the product-use period while the AUCF-L is the area under the curve for the period beginning on the first day and ending on the last day of the product-use cycle.

[3] = Regression model of 364-day continuous vaginal ring use; set-up: species or system human; conditions: continuous use model, linear regression
Procedure: Continuous use models for the vaginal ring system were post hoc analyses based on PK data obtained from a phase 1 PK sub-study.
A regression model was constructed post hoc to describe the relationship between serum SA concentration and the number of days of vaginal ring use and to extrapolate the expected SA concentration after one year of continuous use. Serum SA data points taken in the first 72 hours following vaginal ring insertion and from days 1-3 from each cycle were not included, as the initial burst of steroid release from insertion/reinsertion would not be predictive of serum SA levels with continuous use. Serum SA levels measured after vaginal ring removal were also excluded. Data from subjects who were not adherent during vaginal ring use were also excluded. Adherence was evaluated in the primary PK sub-study, which was based on diary recordings and observed progesterone/estradiol levels. Serum measurements were log transformed for regression modeling. Serum SA measurements were from cycles 1, 3 and 13. The day of use (if continuous) was calculated as (cycle −1)*21+cycle-day of use (21/7). The last measurement was from cycle 13, day 15, corresponding to the 267th day of use. Using the model's parameters, serum SA levels after 364 days of hypothetical use and the 95% confidence interval (95% CI) around the predicted values were predicted as well as the mean. […]

[4] = tested on: Chinese hamster ovary cells; assay: Chromosomal aberration assay; type: cell-based
[5] = tested on: human serum proteins; assay: Serum protein binding; type: in vitro ADME
[6] = tested on: QTc interval; assay: Phase 1 thorough QTc study; type: in vivo, human; conditions: single intravenous bolus dose giving 4.5-fold the therapeutic serum concentrations
Procedure: The effect of SA on the QTc interval was evaluated in a Phase 1 randomized, placebo and positive controlled, double-blind, single-dose, three-period, crossover thorough QTc study in 44 healthy adult female subjects.

[7] = tested on: mouse; assay: In vivo mouse micronucleus test
[8] = tested on: rats; assay: 2-year carcinogenicity study in rats with subdermal implants; type: in vivo, rat; conditions: subdermal implants releasing 40, 100, and 200 μg per day, 2 years
Source text: Long-term continuous administration of natural and synthetic estrogens in certain animal species increases the frequency of carcinomas of the breast, uterus, cervix, vagina, testis, and liver.

[9] = tested on: rats; assay: Return to fertility study in rats with subdermal implants; type: in vivo, rat
Procedure: A return to fertility study was conducted with segesterone acetate in rats, using subdermal implants releasing a dose approximately 25 times the anticipated daily vaginal human dose (based on body surface area).

[10] = molecular target: T1, sex hormone-binding globulin (SHBG) (Homo sapiens, UniProt P04278); assay: Binding to sex hormone-binding globulin
T1 sequence (P04278 30-402): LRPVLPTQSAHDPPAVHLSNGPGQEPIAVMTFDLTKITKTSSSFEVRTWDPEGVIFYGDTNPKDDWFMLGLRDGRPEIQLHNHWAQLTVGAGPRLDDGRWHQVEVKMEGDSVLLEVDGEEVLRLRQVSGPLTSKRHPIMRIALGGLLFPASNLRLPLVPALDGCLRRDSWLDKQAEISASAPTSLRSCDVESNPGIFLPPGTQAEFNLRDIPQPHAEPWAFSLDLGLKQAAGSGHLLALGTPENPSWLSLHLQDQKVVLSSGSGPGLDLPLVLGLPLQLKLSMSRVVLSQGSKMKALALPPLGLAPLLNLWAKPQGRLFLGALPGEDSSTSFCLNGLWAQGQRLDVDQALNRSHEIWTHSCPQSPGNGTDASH

[11] = tested on: Salmonella; assay: Ames/Salmonella reverse mutation assay; type: cell-based

| SMILES | increase in systemic exposure of EE [1] | accumulation of serum EE levels after quarterly product-use periods ([2]; 84-day or 88-day models) | accumulation of serum EE levels at 364 days [3] | mutagenicity/clastogenicity [4] | bound to human serum proteins [5] | effect on the QTc interval [6] | mutagenicity/clastogenicity [7] | predicted serum SA level after the last quarterly product-use period ([2]; linear regression model) | tumor incidence [8] | ovulation and litter parameters after treatment ([9]; 7 weeks after cessation of treatment) | fertility during treatment ([9]; subdermal implants, three months of treatment) | binding affinity for sex hormone-binding globulin (SHBG) [10] | mutagenicity/clastogenicity [11] |
| --- | --- | --- | --- | --- | --- | --- | --- | --- | --- | --- | --- | --- | --- |
| C#C[C@]1(O)CC[C@H]2[C@@H]3CCc4cc(O)ccc4[C@H]3CC[C@@]21C [EE, 19-nor-17α-pregna-1,3,5(10)-trien-20-yne-3,17-diol] | 20-25% | no accumulation | no accumulation | – | – | – | – | – | – | – | – | – | – |
| C=C1C[C@H]2[C@@H]3CCC4=CC(=O)CC[C@@H]4[C@H]3CC[C@]2(C)[C@@]1(OC(C)=O)C(C)=O [SA, 16-methylene-17α-acetoxy-19-nor-pregn-4-ene-3,20-dione] | – | – | – | neither mutagenic nor clastogenic | approximately 95% | did not prolong the QTc interval to any clinically relevant extent | neither mutagenic nor clastogenic | above 100 pmol/L | no drug-related increase in tumor incidence was observed | no adverse effects on ovulation or resulting litter parameters | suppressed fertility | negligible | neither mutagenic nor clastogenic |

— patent publication US20240252428A1, “METHODS OF PROVIDING BIRTH CONTROL” (THE POPULATION COUNCIL, INC., priority 2021, published 2024)
